From PMC13083723 (Patterns, 2026)
Hit rate of the full screen: of about 5,400 compounds, about 190 (3.5%) showed an effect of 50% or more. The list shows a part of the results.

tested on: Vero-E6; assay: primary screen, phospholipidosis by LipidTOX staining; higher = more effect of the substance; conditions: 10 µM
Method: To measure drug-induced PLD in Vero-E6 cells, we used the HCS LipidTOX Red Phospholipidosis Detection Reagent (Invitrogen, #H34351), which is non-toxic to cell growth and remains well retained after aldehyde fixation. In this setup, compounds (at 10 μM concentration) and controls (amiodarone: 10 μM concentration; DMSO: 0.1 v/v %) were added to clear-bottom, 384-well plates (PhenoPlate 384-well, black, optically clear flat bottom, tissue-culture treated, Revvity #6057302) using the Echo Liquid Handler (Labcyte).

Compound | result_ITMP [%]
COc1ccc(C2CNC(=O)C2)cc1OC1CCCC1 (stereo not drawn) | -3.94
O=c1c(O)c(-c2ccc(O)cc2O)oc2cc(O)cc(O)c12 | -3.73
CCCNCC(O)COc1ccccc1C(=O)CCc1ccccc1 (stereo not drawn) | 86.6
O=C(O)/C=C\c1c[nH]cn1 | -4.42
CCCN1C[C@@H](NS(=O)(=O)N(CC)CC)C[C@@H]2Cc3c(O)cccc3C[C@H]21 | 0.96
O=C1c2ccc(Nc3ccc(F)cc3F)cc2CCc2ccc(OC[C@H](O)CO)cc21 | -2.7
O=C(Nc1cccc2c(=O)cc(-c3nn[nH]n3)oc12)c1ccc(OCCCCc2ccccc2)cc1 | 0.93
COc1ccccc1OCC(O)CN1CCN(CC(=O)Nc2c(C)cccc2C)CC1 (stereo not drawn) | -3.35
O=[N+]([O-])c1cccc2cn[nH]c12 | -13
COc1cc([C@@H]2c3cc4c(cc3[C@@H](O[C@@H]3O[C@@H]5CO[C@@H](C)O[C@H]5[C@H](O)[C@H]3O)[C@H]3COC(=O)[C@H]23)OCO4)cc(OC)c1O | -0.38
CC[C@@H](C)Nc1cc(C(=O)NC2CC3CCC(C2)N3c2ccc(C(=O)C3CC3)cn2)c(C)cc1C(N)=O (stereo partly drawn) | -8.13
C[C@H]1C[C@@H]2[C@H]([C@@H](O)C[C@@]3(C)[C@H]2CC[C@]3(O)C(=O)CO)[C@@]2(C)C=CC(=O)C=C12 | -4.05
O=C(O)/C=C/c1ccc(O)cc1 | 0.1
CC(C)[C@@H](C)/C=C/[C@@H](C)[C@H]1CC[C@H]2C3=CC=C4C[C@@H](O)CC[C@]4(C)[C@H]3CC[C@]12C | -5.48
CS(=O)(=O)OCOS(C)(=O)=O | -5.81
CNC(=O)ON(C(C)=O)C(=O)NC | -4.07
COc1ccc(/C=C/CCCCOc2ccc(C(=O)c3cccc(C(=O)O)c3)cc2CCC(=O)O)cc1 | -4.54
O=C(O)c1cc(C(=O)O)c(C(=O)N(Cc2cccc(Oc3ccccc3)c2)[C@H]2CCCc3ccccc32)cc1C(=O)O | 0.15
CCn1cc(-c2cccc(C(F)(F)F)c2)c2sc(C(=N)NC3CCS(=O)(=O)CC3)cc2c1=O | -2.06
CCCCCCOC(=O)CCC(=O)CN | -1.79
O=C(Oc1ccc(Br)cc1)N1CCN2CCC1CC2 | 0.72
CC[C@@]1(O)C(=O)OCc2c1cc1n(c2=O)Cc2cc3c(N)cccc3nc2-1 | 41.6
O=C(NCCN1CCC2(CC1)C(=O)NCN2c1cccc(F)c1)c1ccc(F)c(F)c1 | 60.1
CC(C)NCC(O)c1ccc2ccccc2c1 (stereo not drawn) | 20.2
